The list shows a part of the results.
Each sequence was assayed on PfSIP2 AP2 domain 1 (GST-tagged) (assay: gcPBM binding intensity (ln(normalized median fluorescence intensity)); higher = stronger DNA binding).
Summary of the method: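 An Agilent 4 × 180k array carrying primer-extended double-stranded 36-bp intergenic genomic probes and negative controls received GST-tagged P. falciparum DNA-binding domains expressed in E. coli, about 25 μg on average, for 1 h. The binding buffer contained 1× PBS, 1% milk, 0.2 mg/ml BSA, 0.5% salmon testes DNA and 0.03% Triton X-100. Binding intensity is the top Masliner-normalised natural-log median intensity across replicate spots of either probe orientation, read after Alexa488 anti-GST antibody staining and a 488 nm scan.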

| Sequence | gcPBM binding intensity (ln) |
| --- | --- |
| TTGTATTAAAATCAAGTGCATATAATTTAAGTTCAT [GTGCAC_site9495] | 8.13 |
| CTTTGGTTATAACACACATGCACACGTAAATAAATA [TGCATGCA_site976] | 7.63 |
| CATCACCTTTTTAAATGTACGCATAATACCAAAAAA [XGTACX_site1587] | 7.28 |
| GTAGGTTACAAAATGTGAGAGAAGCAAATATAGAAA [CACACA_negctrl_site1819] | 6.99 |
| TTTTGTTTTTAGTTTATACACACCATATTAATATAA [CACACA_site3102] | 7.27 |
| ATATTTTTATATGAGGTGCATATAATGACAATTAAG | 10.6 |
| ATACTATTTAAATGGGTGCTAAAAATAACAAAAATT | 8.88 |
| TCTTTTTATGTTCTAGAGCATTTTATTATTTAACAT [CACACA_negctrl_site1699] | 6.93 |
| AATCGAAATCGTGCACGGACACATGCAGTAGCCGAG [XGTACX_site6001] | 7.99 |
| TTCCCCCCCAGACACACACACACATACATACCACAT [CACACA_site2305] | 8.83 |
| ATATATATACACAATAGTACGTGTAATATTATTATT [XGTACX_site2151] | 7.56 |
| TATACCTATAAATACACACACATATATAAATAAATA [CACACA_site6730] | 7.22 |
| GAAGTTAGTGTTGACTGTACATATATATGTATATAT [XGTACX_site7243] | 7.21 |
| TTTTCTTTTTGTTCGTGTACACACATGAAATTTATA [XGTACX_site3301] | 7.18 |
| AAACGTACATAATACACACACATGTATACATATAAA [CACACA_site2048] | 7.12 |
| ATTTCTTTTTTTTTTTTTTTTAATGTAAAACATTTT [CACACA_negctrl_site1462] | 6.89 |
| GGTGGTAAAAAACCTGCATGTCGAAATATTAAATAC [TGCATGCA_site33] | 7.23 |
| AAAAAAAAAAAAAAGAGTACTCATATAAAAATATAA [XGTACX_site6551] | 7.3 |
| AAGAAGAAACAAAACACACACAGTCTTCTTTTCTAT [CACACA_site3088] | 6.8 |
| TACAGAATTGTATATAGTACATAAAACAATATATAT [XGTACX_site7275] | 7.16 |
| GTATATGAATAATATTTTATGGTAATTTTTTTTTTT [XGTACX_negctrl_site512] | 6.91 |
| AATGAAAAGTAAAATACACACACATAATATAATTTA [CACACA_site8608] | 6.89 |
| TGTGTAAAAATCATGGGTACACATTTTGATACCAAT [XGTACX_site1779] | 7.01 |

| Sequence | gcPBM binding intensity (ln) |
| --- | --- |
| AAACTTGACGAACACACACACACATATATAAAAAAA [CACACA_site6494] | 7.38 |
| ATAAATTAAAAACACACACACATCTGGATACCCCTA [CACACA_site5780] | 6.93 |
| TTTTTATAAAAAATTTACACTATATGACAGAAGTAA [XGTACX_negctrl_site481] | 7.07 |
| GAATCCTTAATATGAACACACAAATATATTACCCAT [CACACA_site186] | 7.08 |
| TTTTGTTATTTTTCAGTGCAATATGATAATAATATA | 7.72 |
| TCTTTTTAACAAAAAAAAAAAAAAAAAAAAAAATTA [CACACA_negctrl_site1637] | 6.92 |
| AGAATTTTATTATATTGTACTTTTTATAAACCTTGT [XGTACX_site7495] | 6.86 |
| TACATTTATACTACTGCATTCAAAAAAAATAAAAAA [TGCATGCA_negctrl_site157] | 7.2 |
| TGCTTATTTAGAATTGTGCACAGCGAATATTCTGTT | 8.59 |
| TTTTTTTTTTCAAATACATGCATTTATGTATAATAC [TGCATGCA_site722] | 6.92 |
| TAGGAAAAAAATACAGTGCAATTTTTATATAAATAA [GTGCAC_site9979] | 7.86 |
| TTTTTTTTTTTTTTGTGTACTAATATTATAAATTTT [XGTACX_site4405] | 7.01 |
| TTTATATAAATCAAATGTACATATTCCAAATATATA [XGTACX_site8515] | 7.01 |
| TACATATTTTATAACTGTACTTTTTTATTATCCAAT [XGTACX_site5396] | 7.03 |
| TATATTATTTTTAGAAGTACTTATTGTTATAATTCT [XGTACX_site1015] | 6.85 |
| AGAAAAGATAAAAATAGTACATATATATTTACTTAT [XGTACX_site7820] | 6.76 |
| CTCCTTTCAAAAAAATGTACATGTTTACATTTCAAG [XGTACX_site7342] | 7.1 |
| TTATATATAATATGACGTACAATTATACATTTTATG [XGTACX_site7598] | 7.05 |
| ATAAATATTTATAACAGTACATATTTACTATCCTAA [XGTACX_site4497] | 6.75 |
| ACGATTAAATCGATAATACACACTAAATGTAAAACA [CACACA_site119] | 6.78 |
| TATACACATATTTTTACACACATATTTTTTCATATA [CACACA_site7244] | 7 |
| TATAAAAAAATATATATATATATTATATGTGTAGAA [TGCATGCA_negctrl_site391] | 7.32 |

Source: the supplement of paper PMC11417369
